# According to the supplement of paper PMC3334620:
# The full ranking holds about 33,000 sequences; the median of “E-score (-0.5 to 0.5)” is about -0.012, and the highest 2% start at about 0.27. The list shows a part of the results.
# Target: T1, Vhr1 (UniProt P40522)
# T1 sequence: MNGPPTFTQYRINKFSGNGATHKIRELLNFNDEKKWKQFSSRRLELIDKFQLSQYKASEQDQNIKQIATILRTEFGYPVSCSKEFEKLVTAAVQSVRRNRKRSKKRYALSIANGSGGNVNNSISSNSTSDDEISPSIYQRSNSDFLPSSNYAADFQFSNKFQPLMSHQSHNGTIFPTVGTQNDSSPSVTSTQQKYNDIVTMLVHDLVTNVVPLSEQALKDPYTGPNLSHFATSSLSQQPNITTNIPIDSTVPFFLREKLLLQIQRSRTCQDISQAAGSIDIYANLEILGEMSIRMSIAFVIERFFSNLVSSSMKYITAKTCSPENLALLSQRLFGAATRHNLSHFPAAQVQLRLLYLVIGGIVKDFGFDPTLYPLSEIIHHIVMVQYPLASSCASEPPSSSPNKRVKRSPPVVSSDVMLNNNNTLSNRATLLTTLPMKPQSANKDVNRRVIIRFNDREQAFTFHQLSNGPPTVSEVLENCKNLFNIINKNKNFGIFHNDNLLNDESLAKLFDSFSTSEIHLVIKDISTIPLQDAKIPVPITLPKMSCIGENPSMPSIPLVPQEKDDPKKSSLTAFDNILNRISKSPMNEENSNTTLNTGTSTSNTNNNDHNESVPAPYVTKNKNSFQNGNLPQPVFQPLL
# Assay: PBM E-score (8-mer binding enrichment) (E-score (-0.5 to 0.5)); higher = stronger / more preferred TF binding; most listed sequences are background and not binding sites
# Settings: protein concentration: 200 nM; construct: GST-full length
# Procedure, shortened: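 The E-score, a modified Wilcoxon-Mann-Whitney statistic, was computed by the Universal PBM Analysis Suite for every ungapped eight-base word pooled with its reverse complement. Scans behind it were normalised with masliner after bound GST-tagged yeast transcription factors were detected with fluorescent anti-GST. The proteins, at about 100-200 nM, had been applied to universal all-10-mer Agilent arrays made double-stranded by primer extension.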
row,Sequence,PBM E-score
1,AGGTTCGC,-0.102
2,ACGACAGG,0.13
3,GCTCAGGA,0.13
4,AAAGTGTT,-0.194
5,ACGAAGTA,-0.0865
6,CGTTTTAG,-0.253
7,GGACCACA,0.0696
8,AGGTTCCA,-0.201
9,AATGCGGT,0.0174
10,CCTCCAGA,-0.0252
11,AGGCAGAT,0.0683
12,ACTCGGGG,0.0931
13,GGACTGTA,-0.0126
14,ACATCGCT,0.0502
15,CGGCAAAC,0.0854
16,CACCCTGG,0.0592
17,ACAGCCAC,0.145
18,CCTCATGC,0.0272
19,AGGGCACT,-0.238
20,ATCTCTTG,-0.21
21,CTCCCATA,-0.0411
22,GCTACGCC,-0.145
23,GAGGGAAA,-0.34
24,ATTGCAGA,-0.0411

row,Sequence,PBM E-score
1,CCGTAACC,-0.0991
2,AGAGGAGC,-0.0596
3,AACAGTTA,-0.0466
4,CCGCGAAC,0.151
5,ACGCGCCG,0.00905
6,AATCCATG,0.133
7,AAATTCAT,-0.0302
8,ATCGTCCG,0.0471
9,ACTTCATG,-0.00105
10,CACCCGTA,-0.00722
11,ATACCCCC,-0.119
12,CGGGAAAC,-0.0916
13,AGGCTCAG,0.116
14,CCTAGGTA,-0.106
15,GGCGGAAA,-0.092
16,CCCAGACG,-0.152
17,ACTCTGAG,0.0558
18,CGGTCGTC,-0.0873
19,ACCATGGT,0.259
20,CCCCTTTA,-0.246
21,CCCCCACC,-0.341
22,ATACTCTC,-0.0158
23,CACGGGAA,-0.155
24,GAGAACCA,-0.0117

row,Sequence,PBM E-score
1,GCTTCGAC,-0.144
2,ACGTAGGG,-0.366
3,ATAGGCTG,-0.0935
4,AGTCAGGG,0.356
5,AGCCTTGC,-0.018
6,ACTATGTC,0.091
7,CCAAATGG,-0.109
8,CGGTTCGC,-0.00783
9,AAGGCGTA,-0.115
10,CGAGCAGC,0.166
11,GAGGATCA,-0.0399
12,GTGGTTGA,-0.104
13,AGATGGAA,-0.136
14,AATTTAGT,0.256
15,TGCGGCCA,-0.0472
16,ACCCCTAC,-0.0954
17,AATAGGTG,-0.00182
18,CTTGGACA,-0.227
19,AGCCCTAT,-0.0735
20,CTTACACC,0.0957
21,AAAAACAT,-0.0631
22,GACCAAAC,-0.0254
23,TAGTCCGA,-0.0607
24,GCTCAGCA,0.0944

row,Sequence,PBM E-score
1,AAGTATTA,-0.0418
2,ACACCCGC,0.0824
3,CCTGAGGA,-0.0328
4,CAAGTGGA,0.13
5,AAACTTTA,-0.0711
6,AGCCGGAT,0.0864
7,AATCTGGT,0.105
8,CACAACAA,-0.0806
9,CGTACTAC,-0.0502
10,GAAACTTA,-0.0802
11,CGTAGAAA,-0.204
12,AGTTTTTA,-0.234
13,AGGAAGCA,-0.0611
14,AGATTCAT,0.0481
15,CAGTCGCC,0.147
16,TGAACCCA,0.15
17,ATATCGAC,0.204
18,CGTATTCA,0.0876
19,CGATTACG,-0.00851
20,ATACCAGC,0.0165
21,AGGTTGAT,0.0467
22,ATTTGAAG,-0.294
